Measurements: the supplement of paper PMC9135407
Values joined by “and” are separate entries in the source; they are usually repeats but may differ in a detail not shown here. Identical values can stand only once. Counter-ions that a name gives are not always drawn. About 620 (11%) of roughly 5,800 compounds showed activity.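 Rule for the calls: active = score above a cut-off or among the top three wells of a plate; in these data no inactive exceeds 0.85.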 Only a part is listed here, and it is no random draw.

Test system: primary human hepatic stellate cells (donor 1)
Assay: scaled lipid accumulation score (0 = DMSO-like, 1 = nortriptyline-like); higher = stronger HSC inactivation (lipid re-accumulation), active = hit call of the paper
Settings: 48 h
[1] = library stock concentration: 1 mM
[2] = library stock concentration: 3.33 mM
[3] = library stock concentration: 10 mM
[4] = library stock concentration: 6 mM
[5] = library stock concentration: 5.9 mM

## NCCc1cc[nH]n1 [Betazole hydrochloride]
  scaled lipid accumulation score: inactive: 0.123

## CCCCCCCCCC(=O)OCC(CO)OC(=O)CCCCCCCCC (centres undefined) [1,2-Didecanoyl-glycerol (10:0)]
[1]
  scaled lipid accumulation score: inactive: ≤ -0.021

## CCCCCCCCCC(=O)OCC(CO)OC(=O)CCCCCCCCC (centres undefined) [1,2-Didecanoyl-sn-glycerol]
[1]
  scaled lipid accumulation score: inactive: ≤ 0

## CC(=O)C1=C(O)C=C2Oc3c(C(C)=O)c(O)c(C)c(O)c3C2(C)C1=O (single isomer, unassigned; (+)) [(+)-Usniacin]
[2]
  scaled lipid accumulation score: inactive: 0.01
[3]
  scaled lipid accumulation score: inactive: ≤ 0

## O=c1cc(-c2ccc(O)cc2)oc2cc(O[C@@H]3O[C@H](CO)[C@@H](O)[C@H](O)[C@H]3O)cc(O)c12 [Cosmosiin]
[3]
  scaled lipid accumulation score: inactive: 0.333

## Cc1c(NC(C)C)c(=O)n(-c2ccccc2)n1C [Ramifenazone]
[3]
  scaled lipid accumulation score: inactive: 0.012

## Cc1c(NC(C)C)c(=O)n(-c2ccccc2)n1C [Isopyrin hydrochloride]
  scaled lipid accumulation score: inactive: ≤ 0

## O=C(O)c1cc2cccc([N+](=O)[O-])c2[nH]1
[2]
  scaled lipid accumulation score: inactive: ≤ -0.009
[3]
  scaled lipid accumulation score: inactive: 0.006

## COc1ccc(CCc2nc3cc(-c4c(C)noc4C)ccc3n2C[C@H](C)N2CCOCC2)cc1Cl
[2]
  scaled lipid accumulation score: inactive: ≤ -0.009
[3]
  scaled lipid accumulation score: inactive: 0.391

## COc1cc(/C=C(\C#N)C(=O)c2ccc(O)c(O)c2)cc(I)c1O [I-OMe-Tyrphostin AG 538]
[3]
  scaled lipid accumulation score: inactive: ≤ 0

## CNCC[C@H](Oc1cccc2ccccc12)c1cccs1.Cl [Duloxetine hydrochloride]
[4]
  scaled lipid accumulation score: active: 1.05

## CC1(C)S[C@@H]2[C@H](NC(=O)[C@H](N)c3ccccc3)C(=O)N2[C@H]1C(=O)OC1OC(=O)c2ccccc21 (some centres undefined) [Talampicillin hydrochloride]
  scaled lipid accumulation score: inactive: ≤ 0

## NC(=O)OCC(O)COc1ccc(Cl)cc1 (centres undefined) [Chlorphensin carbamate]
  scaled lipid accumulation score: inactive: ≤ 0

## CC(=O)OCOC(c1cc([N+](=O)[O-])ccc1Oc1ccc(Br)cc1)P(=O)(OCOC(C)=O)OCOC(C)=O (centres undefined)
Library stock concentration: 8.1 mM
  scaled lipid accumulation score: active: 0.887

## O=C(O)c1ccc(-n2nc(-c3ccccc3O)nc2-c2ccccc2O)cc1 [Deferasirox]
[2]
  scaled lipid accumulation score: inactive: ≤ 0
[3]
  scaled lipid accumulation score: inactive: 0.042

## COc1cc(C(=O)NC2CCN(C)CC2)ccc1Nc1ncc2c(n1)N(C1CCCC1)CC(F)(F)C(=O)N2C
[2]
  scaled lipid accumulation score: inactive: 0.271
[3]
  scaled lipid accumulation score: inactive: 0.722

## O=C1c2ccccc2-c2nc3nnnn3nc21 [PDK1/Akt/Flt Dual Pathway Inhibitor]
[2]
  scaled lipid accumulation score: inactive: 0.462

## O=C(NCc1cccc(O)c1)Nc1nc(-c2ccncc2)cs1
[2]
  scaled lipid accumulation score: inactive: 0.56

## COC(=O)CCc1ccc(OCC(O)CNC(C)C)cc1 (centres undefined)
[3]
  scaled lipid accumulation score: inactive: ≤ 0

## COC(=O)CCc1ccc(OCC(O)CNC(C)C)cc1 (centres undefined) [Esmolol HCl]
[2]
  scaled lipid accumulation score: inactive: ≤ 0
[3]
  scaled lipid accumulation score: inactive: ≤ -0.001

## COC(=O)CCc1ccc(OCC(O)CNC(C)C)cc1 (centres undefined) [Esmolol]
Library stock concentration: 6.8 mM
  scaled lipid accumulation score: inactive: ≤ 0

## CC(N)(Cc1ccc(O)cc1)C(=O)O (racemic) [DL-alpha-Methyl-p-tyrosine]
[3]
  scaled lipid accumulation score: inactive: 0.213

## CN1C(C(=O)Nc2ccccn2)=C(O)c2ccccc2S1(=O)=O [Piroxicam]
  scaled lipid accumulation score: inactive: 0.194
[2]
  scaled lipid accumulation score: inactive: 0.032
[4]
  scaled lipid accumulation score: inactive: ≤ -0.006 and inactive: ≤ 0
[3]
  scaled lipid accumulation score: inactive: ≤ 0 and inactive: ≤ -0.006
Library stock concentration: 15.1 mM
  scaled lipid accumulation score: inactive: ≤ -0.012

## COc1c(C)c2c(c(O)c1C/C=C(\C)CCC(=O)OCCN1CCOCC1)C(=O)OC2 [Mycophenolate Mofetil]
[2]
  scaled lipid accumulation score: inactive: ≤ 0
[3]
  scaled lipid accumulation score: inactive: ≤ 0

## NCCS [Mercaptamine hydrochloride]
[3]
  scaled lipid accumulation score: inactive: 0.156

## NCCS [Cysteamine HCl]
[2]
  scaled lipid accumulation score: inactive: ≤ 0
[3]
  scaled lipid accumulation score: inactive: ≤ -0.001

## NCCS [Cysteamine hydrochloride]
[3]
  scaled lipid accumulation score: inactive: ≤ -0.05

## COCCOC(=O)C1=C(C)NC(C)=C(C(=O)OC(C)C)C1c1cccc([N+](=O)[O-])c1 (centres undefined)
[3]
  scaled lipid accumulation score: inactive: 0.023

## COCCOC(=O)C1=C(C)NC(C)=C(C(=O)OC(C)C)C1c1cccc([N+](=O)[O-])c1 (centres undefined) [Nimodipine]
  scaled lipid accumulation score: inactive: ≤ 0
[2]
  scaled lipid accumulation score: inactive: 0.049
Library stock concentration: 4.8 mM
  scaled lipid accumulation score: inactive: ≤ -0.006 and inactive: ≤ 0
Library stock concentration: 12 mM
  scaled lipid accumulation score: inactive: 0.052

## CCCCOc1cc(C(=O)NCCN(CC)CC)c2ccccc2n1.Cl [Dibucaine HCl]
[3]
  scaled lipid accumulation score: active: 0.977

## COC(=O)[C@@H](N)Cc1ccc(O)c(O)c1 [L-3,4-Dihydroxyphenylalanine methyl ester hydrochloride]
[3]
  scaled lipid accumulation score: inactive: ≤ -0.07

## C[C@]12CCC(=O)C=C1C=C[C@@H]1[C@@H]2CC[C@@]2(C)[C@H]1CC[C@@]21CCC(=O)O1 [Canrenone]
[5]
  scaled lipid accumulation score: inactive: ≤ 0
[3]
  scaled lipid accumulation score: inactive: ≤ -0.027

## COc1ccc2c(c1)c(CC(=O)O)c(C)n2Cc1ccc(Cl)cc1 [1-(4-Chlorobenzyl)-5-methoxy-2-methylindole-3-acetic acid]
[3]
  scaled lipid accumulation score: inactive: 0.078

## CC1(C)[C@@H](O)CC[C@]2(C)[C@H]3C(=O)C=C4[C@@H]5C[C@@](C)(C(=O)O)CC[C@]5(C)CC[C@@]4(C)[C@]3(C)CC[C@@H]12 [Enoxolone]
[2]
  scaled lipid accumulation score: inactive: 0.016
[3]
  scaled lipid accumulation score: inactive: ≤ 0

## C[C@H]1COC2(CCN(c3nc(=O)c4cc(C(F)(F)F)cc([N+](=O)[O-])c4s3)CC2)O1 (racemic) [BTZ043 Racemate]
[2]
  scaled lipid accumulation score: inactive: ≤ 0
[3]
  scaled lipid accumulation score: inactive: ≤ 0

## Oc1cc(O)c2c(c1)O[C@H](c1ccc(O)c(O)c1)[C@@H](O)C2 (racemic) [(+)-Catechin Hydrate]
[3]
  scaled lipid accumulation score: inactive: ≤ 0

## Oc1cc(O)c2c(c1)O[C@H](c1ccc(O)c(O)c1)[C@@H](O)C2 (racemic) [(+)-Catechin (hydrate)]
[1]
  scaled lipid accumulation score: inactive: ≤ 0

## Cc1ccc(C)c(OCCCC(C)(C)C(=O)O)c1 [Gemfibrozil]
  scaled lipid accumulation score: inactive: ≤ 0
[2]
  scaled lipid accumulation score: inactive: ≤ 0
Library stock concentration: 8 mM
  scaled lipid accumulation score: inactive: ≤ 0 and inactive: ≤ -0.001
[3]
  scaled lipid accumulation score: inactive: ≤ 0

## Cc1ccc(C)c(OCCCC(C)(C)C(=O)O)c1
[3]
  scaled lipid accumulation score: inactive: ≤ 0

## O=c1[nH]c2cc(Cl)ccc2c(O)c1-c1cccc(Oc2ccccc2)c1
[3]
  scaled lipid accumulation score: inactive: 0.13 and inactive: ≤ 0

## O=C(O)C[C@H](O)C[C@H](O)/C=C/c1c(C2CC2)nc2ccccc2c1-c1ccc(F)cc1 [Pitavastatin Calcium]
[2]
  scaled lipid accumulation score: inactive: 0.373
[3]
  scaled lipid accumulation score: inactive: 0.131

## O=C(O)C[C@H](O)C[C@H](O)/C=C/c1c(C2CC2)nc2ccccc2c1-c1ccc(F)cc1
[3]
  scaled lipid accumulation score: inactive: ≤ 0 and inactive: 0.802

## CCC(CC)CNc1cc(C(=O)NCCN(C)C)cc(S(=O)(=O)Nc2ccc(OC)cc2)c1
[3]
  scaled lipid accumulation score: active: 0.996

## CC(C)(C)c1cc(NC(=O)Nc2ccc(-c3cn4c(n3)sc3cc(OCCN5CCOCC5)ccc34)cc2)no1 [Quizartinib (AC220)]
[3]
  scaled lipid accumulation score: active: 1.15

## CC(C)[C@H](NS(=O)(=O)c1ccc(-c2ccc(Br)cc2)cc1)C(=O)O
[3]
  scaled lipid accumulation score: inactive: ≤ -0.001

## C[C@H](NC(=O)CCc1nc2ccccc2c(=O)[nH]1)c1ccccc1
[2]
  scaled lipid accumulation score: inactive: ≤ -0.009
[3]
  scaled lipid accumulation score: inactive: ≤ 0

## NCC(=O)CCC(=O)O [Aminolevulinic acid hydrochloride]
[3]
  scaled lipid accumulation score: inactive: ≤ -0.027

## NCC(=O)CCC(=O)O [5-Aminolevulinic acid HCl]
[2]
  scaled lipid accumulation score: inactive: ≤ 0
[3]
  scaled lipid accumulation score: inactive: ≤ 0

## NCC(=O)CCC(=O)O [Aminolevulinic Acid]
[3]
  scaled lipid accumulation score: inactive: ≤ 0

## NC(=O)c1ccc[n+]([C@@H]2O[C@H](COP(=O)([O-])OP(=O)(O)OC[C@H]3O[C@@H](n4cnc5c(N)ncnc54)[C@H](O)[C@@H]3O)[C@@H](O)[C@H]2O)c1 [Nadide]
  scaled lipid accumulation score: inactive: ≤ 0
Library stock concentration: 3 mM
  scaled lipid accumulation score: inactive: 0.024

## COc1ccc(CNc2nc(N(CCO)CCO)nc3c2ncn3C(C)C)cc1 [Cdk2 Inhibitor III]
[2]
  scaled lipid accumulation score: inactive: 0.067

## O=C(Nc1ccccc1)N[C@@H]1C[C@@H](C(=O)O)Nc2cc(Cl)cc(Cl)c21
[3]
  scaled lipid accumulation score: inactive: ≤ 0

## COc1ccc(CN(CCN(C)C)c2ncccn2)cc1 [Thonzylamine hydrochloride]
Library stock concentration: 6.2 mM
  scaled lipid accumulation score: inactive: ≤ 0
[3]
  scaled lipid accumulation score: inactive: 0.008

## N=C(N)SCCc1ccc(CCSC(=N)N)cc1 [1,4-PBIT (dihydrobromide)]
[1]
  scaled lipid accumulation score: inactive: 0.049

## CC[C@@H](C)Nc1cc(C(=O)NC2CC3CCC(C2)N3c2ccc(C(=O)C3CC3)cn2)c(C)cc1C(N)=O (some centres undefined)
[3]
  scaled lipid accumulation score: active: 0.853

## Cc1ccc(Sc2ccccc2N2CCNCC2)c(C)c1
[2]
  scaled lipid accumulation score: inactive: 0.769
[3]
  scaled lipid accumulation score: inactive: 0.102

## Cc1cc2c(OCC(CNC(C)(C)C)OC(=O)c3ccccc3)cccc2[nH]1 (centres undefined) [Bopindolol malonate]
Library stock concentration: 5.3 mM
  scaled lipid accumulation score: inactive: ≤ -0.006

## O=C(O)c1cc([N+](=O)[O-])ccc1NCCCc1ccccc1 [5-Nitro-2-(3-phenylpropylamino)benzoic acid]
[3]
  scaled lipid accumulation score: inactive: 0.074

## CCCCCCCCNC(C)C(O)c1ccc(SC(C)C)cc1 (centres undefined) [Suloctidil]
  scaled lipid accumulation score: inactive: 0.747
[5]
  scaled lipid accumulation score: inactive: 0.37
[3]
  scaled lipid accumulation score: inactive: ≤ 0

## CC(=O)CC(c1ccc([N+](=O)[O-])cc1)c1c(O)c2ccccc2oc1=O (centres undefined) [Acenocoumarol]
  scaled lipid accumulation score: inactive: ≤ 0

## C[C@H]1O[C@@H](O[C@H]2[C@@H](O)C[C@H](O[C@H]3[C@@H](O)C[C@H](O[C@H]4CC[C@@]5(C)[C@H](CC[C@@H]6[C@@H]5CC[C@]5(C)[C@@H](C7=CC(=O)OC7)CC[C@]65O)C4)O[C@@H]3C)O[C@@H]2C)C[C@H](O)[C@@H]1O [Digitoxin]
[3]
  scaled lipid accumulation score: inactive: 0.545

## S=c1[nH]cnc2nc[nH]c12 [Mercaptopurine (6-MP)]
[2]
  scaled lipid accumulation score: inactive: ≤ 0
[3]
  scaled lipid accumulation score: inactive: ≤ 0

## S=c1[nH]cnc2nc[nH]c12 [Mercaptopurine]
[3]
  scaled lipid accumulation score: inactive: ≤ 0
Library stock concentration: 13.1 mM
  scaled lipid accumulation score: inactive: ≤ -0.001
